Results from publication PMC5505701, “Somatostatin binds to the human amyloid β peptide and favors the formation of distinct oligomers” (eLife, 2017).

B1: HSD10: human brain protein, known Aβ interactor (protein, UniProt Q99714 2-261, looked up)
3-hydroxyacyl-CoA …: AAACRSVKGLVAVITGGASGLGLATAERLVGQGASAVLLDLPNSGGEAQAKKLGNNCVFAPADVTSEKDVQTALALAKGKFGRVDVAVNCAGIAVASKTYNLKKGQTHTLEDFQRVLDVNLMGTFNVIRLVAGEMGQNEPDQGGQRGVIINTASVAAFEGQVGQAAYSASKGGIVGMTLPIARDLAPIGIRVMTIAPGLFGTPLLTSLPEKVCNFLASQVPFPSRLGDPAEYAHLVQAIIENPFLNGEVIRLDGAIRMQP
B2: ATP synthase subunit gamma, mitochondrial: human brain protein (protein, UniProt P36542 26-298, looked up)
ATP synthase F(1) complex …: ATLKDITRRLKSIKNIQKITKSMKMVAAAKYARAERELKPARIYGLGSLALYEKADIKGPEDKKKHLLIGVSSDRGLCGAIHSSIAKQMKSEVATLTAAGKEVMLVGIGDKIRGILYRTHSDQFLVAFKEVGRKPPTFGDASVIALELLNSGYEFDEGSIIFNKFRSVISYKTEEKPIFSLNTVASADSMSIYDDIDADVLQNYQEYNLANIIYYSLKESTTSEQSARMTAMDNASKNASEMIDKLTLTFNRTRQAVITKELIEIISGAAALD
B3: Cytosolic acyl CoA thioester hydrolase: human brain protein (protein, UniProt O00154 1-380, looked up)
Cytosolic acyl coenzyme A …: MKLLARALRLCEFGRQASSRRLVAGQGCVGPRRGCCAPVQVVGPRADLPPCGACITGRIMRPDDANVAGNVHGGTILKMIEEAGAIISTRHCNSQNGERCVAALARVERTDFLSPMCIGEVAHVSAEITYTSKHSVEVQVNVMSENILTGAKKLTNKATLWYVPLSLKNVDKVLEVPPVVYSRQEQEEEGRKRYEAQKLERMETKWRNGDIVQPVLNPEPNTVSYSQSSLIHLVGPSDCTLHGFVHGGVTMKLMDEVAGIVAARHCKTNIVTASVDAINFHDKIRKGCVITISGRMTFTSNKSMEIEVLVDADPVVDSSQKRYRAASAFFTYVSLSQEGRSLPVPQLVPETEDEKKRFEEGKGRYLQMKAKRQGHAEPQP
B4: Centractin, beta: human brain protein (protein, UniProt P42025 1-376, looked up)
Beta-centractin: MESYDIIANQPVVIDNGSGVIKAGFAGDQIPKYCFPNYVGRPKHMRVMAGALEGDLFIGPKAEEHRGLLTIRYPMEHGVVRDWNDMERIWQYVYSKDQLQTFSEEHPVLLTEAPLNPSKNREKAAEVFFETFNVPALFISMQAVLSLYATGRTTGVVLDSGDGVTHAVPIYEGFAMPHSIMRVDIAGRDVSRYLRLLLRKEGVDFHTSAEFEVVRTIKERACYLSINPQKDEALETEKVQYTLPDGSTLDVGPARFRAPELLFQPDLVGDESEGLHEVVAFAIHKSDMDLRRTLFANIVLSGGSTLFKGFGDRLLSEVKKLAPKDIKIKISAPQERLYSTWIGGSILASLDTFKKMWVSKKEYEEDGSRAIHRKTF
B5: Mu-crystallin homolog: human brain protein (protein, UniProt Q14894 1-314, looked up)
Ketimine reductase …: MSRVPAFLSAAEVEEHLRSSSLLIPPLETALANFSSGPEGGVMQPVRTVVPVTKHRGYLGVMPAYSAAEDALTTKLVTFYEDRGITSVVPSHQATVLLFEPSNGTLLAVMDGNVITAKRTAAVSAIATKFLKPPSSEVLCILGAGVQAYSHYEIFTEQFSFKEVRIWNRTKENAEKFADTVQGEVRVCSSVQEAVAGADVIITVTLATEPILFGEWVKPGAHINAVGASRPDWRELDDELMKEAVLYVDSQEAALKESGDVLLSGAEIFAELGEVIKGVKPAHCEKTTVFKSLGMAVEDTVAAKLIYDSWSSGK

Tested on: oligomeric Aβ1-42 (biotin-oAβ1-42 bait)
Conditions: for Experiment I B-oAβ1-42/B Ratio: enrichment relative to biotin-only saturated negative control matrix, human frontal lobe digitonin extract, TMT, three biological replicates, pH 8.0, 4°C overnight

| Molecule | oAβ1-42 binding observed (in words) (experiment not given) | Experiment I B-oAβ1-42/B Ratio |
| --- | --- | --- |
| B1 | oAβ1-42 binders observed in this work |  |
| B2 |  | 8.57 |
| B3 |  | 8.38 |
| B4 |  | 7.87 |
| B5 |  | 7.65 |
